The values below come from PubChem BioAssay AID1347073 (National Center for Advancing Translational Sciences (NCATS), 2019).

The structures appear in SMILES notation. Screen size: about 45,000 compounds; about 200 (0.44%) were called active. Inconclusive results (about 7%) are left out. Calls come from the whole dose curve; as a rule, active = well fitted activation curve with a large enough effect; inconclusive = small, poorly fitted or top-dose-only effect; inactive = no such curve, though single readings can be large or run the other way. The list shows a part of the results.

The experiment can be described thus: qHTS of TDP-43 Inhibitors: NCGC Sytravon Library Screen. Note: 0% is about no effect; nearly all actives have a fitted effect of over 55% in size. To be noted: yeast TDP-43 toxicity rescue, BacTiter-Glo growth, 24 h; series mostly up to 46.1 µM; growth rescue (activation): at the top concentration. The gist of the method: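 TDP-43-expressing yeast, pregrown in raffinose, seeded at OD600 0.02 in galactose medium with compound for 24 hr at 30 deg C. Growth read by BacTiter-Glo luminescence, so rescue of toxicity appears as activation.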
As for `Cc1n[nH]c(C)c1CN(C)C(=O)c1cc(COc2ccc(F)c(F)c2)on1`, the “growth rescue (activation)” value is inactive: 6.25%.
The figure for `O=C(O)c1ccc(N2C(=O)/C(=C\c3ccccc3)N=C2c2ccccc2)cc1` is inactive: 5.59%.
`O=C(CN1CCC(n2nnc3cc(C(F)(F)F)ccc32)CC1)NCc1cccs1`: the “growth rescue (activation)” value is inactive: 13.6%.
On to `O=C(CO/N=C/c1ccccc1Cl)N1CCCc2ccccc21`, for which the “growth rescue (activation)” value is inactive: 13%.
Next, `COc1ccc(CNC(=O)C2CCN(S(=O)(=O)c3ccc4nc5c(c(C(=O)O)c4c3)CC(C)CC5)CC2)cc1` (centres undefined): inactive: 0.13%.
For the molecule `O=C(CCNS(=O)(=O)c1ccc(Br)s1)NCc1ccccc1`, the “growth rescue (activation)” value is inactive: -0.151%.
In the case of `Fc1ccc(-c2cnc3n2CCCCC3)cc1`, the “growth rescue (activation)” value is inactive: 5.65%.
As for `CCc1ccc(NC(=O)c2c(C(=O)Nc3ccccc3)sc3nc(C)cc(=O)n23)cc1`, the “growth rescue (activation)” value is inactive: 4.75%.
For `CCc1ccc(Oc2coc3cc(OCC(=O)Nc4cc(C)ccc4C)ccc3c2=O)cc1`, the “growth rescue (activation)” value was inactive: -9.23%.
Take `O=C(CNC(=O)c1ccccc1)Oc1ccc([N+](=O)[O-])cc1`: the “growth rescue (activation)” value was inactive: -8.18%.
The figure for `COc1cccc(Nc2n[nH]c(=S)s2)c1` is inactive: 20.6%; for `N#Cc1c(Sc2ncc(C(F)(F)F)cc2Cl)nsc1C/C=N\OCc1c(F)cccc1Cl` it is inactive: 6.54%.
Next, `CCC(C)NC(=O)CN(c1ccc(Cl)c(Cl)c1)S(C)(=O)=O` (centres undefined): inactive: 12.2%.
In the case of `COc1cccc(-c2cc(C(=O)N3CCN(c4ccc(F)cc4)CC3)no2)c1`, the “growth rescue (activation)” value is inactive: 4.44%.
Regarding `O=C(CSc1nc(-c2ccco2)cc(C(F)(F)F)n1)NCCc1ccccc1`, the “growth rescue (activation)” value is inactive: 16.4%.
As for `O=c1c2sccc2n(Cc2cc(=O)n3ccccc3n2)c(=O)n1-c1cccc(C(F)(F)F)c1`, the “growth rescue (activation)” value was inactive: 21%.
Next, `O=C(NCc1cccs1)C1CC(=O)N(Cc2ccccc2)C1` (centres undefined): inactive: -23.6%; `O=CNc1cc(-c2ccc(C(=O)N3CCOCC3)cc2)cn2c(-c3ccc(F)cc3)cnc12`: inactive: -1.4%; `O=C(Nc1ccc2c(c1)CCC2)c1cccc(S(=O)(=O)Nc2ccccc2Cl)c1`: inactive: 32.6%.
For `CC(C)(CNC(=O)CNC(=O)c1ccc(Cl)cc1Cl)N1CCOCC1`, the “growth rescue (activation)” value is inactive: 19.5%.
On to `CC(C)(C)c1ccc(CSc2nnc(-c3ccccn3)n2Cc2ccco2)cc1`, for which the “growth rescue (activation)” value was inactive: 15.7%.
Turning to `O=C(CCCOC(=O)c1ccc(O)cc1)c1ccccc1`, the “growth rescue (activation)” value was inactive: 20.9%.
For `CSc1ccccc1CNc1nc(NCC2CC2)nc2ccsc12`, the “growth rescue (activation)” value is inactive: 17.3%.
Regarding `CCCN1CCC(NC(=O)CCc2nnc(-c3ccccc3)o2)CC1`, the “growth rescue (activation)” value is inactive: 6.59%.
The figure for `O=C(O)c1ccc(COc2ccccc2/C=C2/NC(=O)N(c3cccc(Cl)c3)C2=O)cc1` is inactive: 2.93%; for `Cc1cc(C(=O)COc2ccccc2[N+](=O)[O-])c(C)n1-c1cccc(S(=O)(=O)N2CCOCC2)c1` it is inactive: 5.87%.
With `COc1cc(-c2cc(NC=O)c3ncc(-c4ccc(C(C)=O)cc4)n3c2)ccc1O`, the “growth rescue (activation)” value was inactive: -1.71%.
As to `Cc1cc(C)n(-c2ccc(C(=O)NCCCN3CCOCC3)cc2)n1`, the “growth rescue (activation)” value is inactive: 2.63%.
For `CC(=O)c1cccc(S(=O)(=O)NC(C)C2CC3CCC2C3)c1` (centres undefined), the “growth rescue (activation)” value is inactive: 19.4%.
As for `CN(C(=O)COc1ccc([N+](=O)[O-])cc1)C1CCS(=O)(=O)C1` (centres undefined), the “growth rescue (activation)” value was inactive: 2.46%.
Take `COC(=O)c1sc2nc(C)cc(-c3ccccc3)c2c1N`: the “growth rescue (activation)” value is inactive: 23.6%.
For `Cc1cc(C)nc(NNC(=O)c2ccccc2O)n1`, the “growth rescue (activation)” value is inactive: -7.12%.
The figure for `CCOC(=O)CSc1cc(CS(C)(=O)=O)nc(-c2ccccn2)n1` is inactive: 0.481%; for `CC(=O)c1cccc(NC(=O)COc2ccccc2C(=O)c2cc(C#N)c(=O)n(C3CCCCC3)c2)c1` it is inactive: -5.89%; for `COc1cc(NC(=O)COC(=O)c2[nH]c(C)c(C(C)=O)c2C)cc(OC)c1` it is inactive: 17.2%.
Turning to `Cn1c(-c2cccc([N+](=O)[O-])c2)cnc1NCc1cccc([N+](=O)[O-])c1`, the “growth rescue (activation)” value was inactive: 2.19%.
As for `COC(=O)C(C(=O)OC)c1ccc(-n2cccc2)cc1`, the “growth rescue (activation)” value is inactive: 13.2%.
As for `CCn1c(=O)c(C(=O)Nc2ccccn2)c(O)c2ccccc21`, the “growth rescue (activation)” value is inactive: -5.58%.
Regarding `CCOC(=O)N1CCC(N2Cc3cccc(C(=O)N4CCN(c5cccc(C)c5C)CC4)c3C2=O)CC1`, the “growth rescue (activation)” value was inactive: 9.47%.
Consider `CSc1ccc(CN(C)C(=O)CNC(=O)CNS(=O)(=O)c2ccc(C)c(C)c2)cc1`, for which the “growth rescue (activation)” value is inactive: 1.69%.
As for `COc1ccc2ccccc2c1CNC(=O)CC1C(=O)NCCN1CC(C)C` (centres undefined), the “growth rescue (activation)” value is inactive: 6.19%.
In the case of `Cc1c(F)cccc1NS(=O)(=O)c1ccc2c(c1)n(C)c(=O)c(=O)n2C`, the “growth rescue (activation)” value was inactive: -14.1%.
Turning to `Cc1ccc(NC(=O)COC(=O)c2ccc(-n3nc(C)cc3C)cc2)c(F)c1`, the “growth rescue (activation)” value was inactive: 9.76%.
With `CC(NC(=O)C(Cc1ccccc1)n1cccc1)c1ccccc1` (centres undefined), the “growth rescue (activation)” value was inactive: 22.7%.
Turning to `Fc1ccc(-c2nnc(SCc3cccnc3)o2)cc1`, the “growth rescue (activation)” value was inactive: 9.38%.
Next, `CCC(C)NCCCOc1c(C)cc(C)cc1Br` (centres undefined): inactive: -17.7%; `c1ccc(-c2cc3nc(NCC4CC4)nc(NCC4CCCCC4)c3s2)cc1`: inactive: 18.4%; `Cc1c(NC(=O)CCSCCc2ccccn2)cccc1[N+](=O)[O-]`: inactive: 1.48%.
Regarding `O=C(CSc1nc2ccccc2[nH]1)N/N=C/c1ccncc1`, the “growth rescue (activation)” value was inactive: 11.3%.
Turning to `O=C(NNC(=S)NC(=O)c1ccc(F)cc1)c1cccnc1`, the “growth rescue (activation)” value was inactive: -1.61%.
As to `CC(C)OCCCNC(=S)NNC(=O)C(c1ccccc1)c1ccccc1`, the “growth rescue (activation)” value is inactive: 5.55%.
In the case of `COc1ccc(NC(=O)c2cc(-c3ccccn3)nc3ccccc23)c(OC)c1`, the “growth rescue (activation)” value was inactive: 9.08%.
In the case of `CN1CCN(c2ncnc3c2ncn3[C@H]2CN(Cc3ccccc3)C[C@@H](CO)O2)CC1`, the “growth rescue (activation)” value is inactive: 5.88%.
Next, `Cc1cccc(-c2nc(S(=O)(=O)c3ccccc3)c(N3CCOCC3)o2)c1`: inactive: 14.5%.
